{"source": "PubChem BioAssay AID445", "about": "(National Center for Advancing Translational Sciences (NCATS), 2006)", "note": "Out of some 110,000 compounds screened, about 40 (0.04%) were called active. The shares of active, inactive and inconclusive entries below differ from those in the screen. The call rests on the fitted dose curve; in most records, active means well fitted curve in the direction sought with a large enough effect in the signal ratio (not every such curve was filed as active); inconclusive means small, poorly fitted or top-dose-only effect, or a change in a side signal; inactive means flat fitted curve, though single readings scatter; the % refers to the signal ratio. Potencies beside an inconclusive call are fits to weak or partial responses and may not hold up. Potency means the concentration at half of the fitted maximal effect.", "data": [{"assay": "IkB Signaling;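 on IkBa stabilization activation: 0% = basal untreated cells and 100% = reference inhibitor full response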", "conditions": "ABC-DLBCL IkBa-CBG/CBR dual luciferase ratio (green luciferase fused to IkBa over red control in OCI-Ly3 lymphoma cells), 4 h; IkBa stabilization activation: at 57.1 µM (top of the series), scaled: untreated 0%, proteasome inhibitor 100% unless noted", "procedure,_shortened": "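Curves were fitted separately to fusion (green), unfused (red) and ratio luminescence, then classed by r2, magnitude and activity. Cells: OCI-Ly3, 4 h compound plus doxycycline at 37C; 10 uM MG-132 defined full response.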", "values": [{"smiles": "COc1cccc(C(c2nnnn2CS(=O)(=O)c2ccc(C)cc2)N2CCN(C)CC2)c1OC", "note": "(centres undefined)", "IkBa stabilization activation": "inactive: 0.448%"}, {"smiles": "COc1ccc(-c2cc(C(=O)N3CCN(Cc4ccccc4)CC3)no2)cc1OC", "Potency": "inconclusive: 3.16 µM [signal inhibitor, full curve]"}, {"smiles": "COc1ccc(-c2nc3c(c(SCC(=O)Nc4ccccc4F)n2)Cc2cc(C)ccc2O3)cc1", "IkBa stabilization activation": "inactive: 1.67%"}, {"smiles": "CCc1ccccc1NC(=O)CN1C(=O)c2ccccc2Sc2ncccc21", "IkBa stabilization activation": "inactive: -1.57%"}, {"smiles": "NC(=O)C1(N2CCCCC2)CCN(C(=O)Nc2ccc(F)cc2)CC1", "IkBa stabilization activation": "inconclusive: 0.904% [signal inhibitor]"}, {"smiles": "Cc1ccc(C)c(N2CCN(C(=O)C3CCCN(Cc4nc(-c5cccc(Cl)c5)oc4C)C3)CC2)c1", "note": "(centres undefined)", "IkBa stabilization activation": "inconclusive: 0.321% [signal inhibitor]"}, {"smiles": "CCOc1cccc(NC(=O)CSc2ncc(-c3ccccc3)[nH]2)c1", "Potency": "inconclusive: 25.1 µM [signal inhibitor]"}, {"smiles": "Cn1c(=O)c2c(-c3ccccc3)n3c(c2n(C)c1=O)C(c1ccco1)Nc1ccccc1-3", "note": "(centres undefined)", "IkBa stabilization activation": "inactive: -2.67%"}, {"smiles": "COc1ccc(C(=O)Nc2nc3c(s2)CCCC3)cc1Cl", "IkBa stabilization activation": "inactive: 0.882%"}, {"smiles": "CCOc1cccc2sc(N3CCN(C(=O)C4CC4)CC3)nc12", "IkBa stabilization activation": "inactive: -4.76%"}, {"smiles": "Cc1cccc(N2CCN(C(=O)c3ccc4c(c3)N(Cc3cccc(Cl)c3)C(=O)c3ccccc3S4=O)CC2C)c1", "note": "(centres undefined)", "IkBa stabilization activation": "inactive: 0.589%"}, {"smiles": "Cc1cc(C)cc(NC(=O)CCCn2c3ccccc3c(=O)c3ccccc32)c1", "IkBa stabilization activation": "inconclusive: 13.6% [signal inhibitor]"}, {"smiles": "O=C(NCc1ccc(F)cc1)c1ccc2nc(N3CCCCC3)sc2c1", "IkBa stabilization activation": "inactive: -0.827%"}, {"smiles": "Cc1ccc(NC(=O)CCC(=O)N2Cc3ccccc3Oc3ncccc32)cc1F", "IkBa stabilization activation": "inconclusive: 2.49% [signal inhibitor]"}, {"smiles": "COCC(=O)Nc1sc2c(c1C(=O)OC)CCC(C)C2", "note": "(centres undefined)", "IkBa stabilization activation": "inactive: 6.09%"}, {"smiles": "Cc1cccc(Cn2c(=O)n(CCC(=O)NCCc3ccc(Cl)cc3)c(=O)c3sccc32)c1", "IkBa stabilization activation": "inactive: 0.608%"}, {"smiles": "COc1ccc(-n2c(C)cc(C(=O)COC(=O)Cn3cnc4ccccc43)c2C)cc1", "IkBa stabilization activation": "inconclusive: 2.67% [signal inhibitor]"}, {"smiles": "CCOc1ccc(NC(=O)c2ccc3c(c2)CCN3S(=O)(=O)c2ccc(Cl)cc2)cc1", "IkBa stabilization activation": "inconclusive: 3.06% [signal inhibitor]"}, {"smiles": "O=C(O)c1c(CNCc2cccc(F)c2)c2ccccc2n1Cc1ccccc1", "IkBa stabilization activation": "inconclusive: 0.347% [signal inhibitor]"}, {"smiles": "O=C(NCC(c1ccc2c(c1)OCO2)N1CCOCC1)C(=O)Nc1cccc(Cl)c1", "note": "(centres undefined)", "IkBa stabilization activation": "inconclusive: 14.4% [signal inhibitor]"}, {"smiles": "COc1ncc2nc(-c3cccs3)c(=O)n(Cc3ccc(F)cc3)c2n1", "IkBa stabilization activation": "inactive: -2.65% [at 11.4 µM, scaled: untreated 0%, proteasome inhibitor 100%]"}, {"smiles": "Fc1cccc(Cl)c1Cn1c(-c2cccs2)nc2ccccc21", "IkBa stabilization activation": "inconclusive: 1.79% [signal inhibitor]"}, {"smiles": "CCOc1ccc(NC(=O)c2ccc(F)c(S(=O)(=O)N(CC)Cc3ccccc3)c2)cc1", "IkBa stabilization activation": "inconclusive: 11.5% [signal inhibitor]"}, {"smiles": "CCOC(=O)c1scc(-c2ccc(C)cc2)c1S(=O)(=O)N1CCN(c2ccccc2F)CC1", "IkBa stabilization activation": "inactive: 0.0731%"}, {"smiles": "O=C(CCC1N=C2c3ccccc3N=C(SCc3cccc(F)c3)N2C1=O)NCc1cccs1", "note": "(centres undefined)", "IkBa stabilization activation": "inconclusive: -0.591% [signal inhibitor]"}, {"smiles": "Cc1ccc(Cl)cc1N1CCN(C(=O)CCNS(=O)(=O)c2ccc3c(c2)CCN3C(=O)C2CC2)CC1", "IkBa stabilization activation": "inconclusive: 3.75% [signal inhibitor]"}, {"smiles": "Cc1ccc2c3c1C1(C(=O)N3C(C)(C)CC2C)C(C#N)=C(N)Oc2cc(O)ccc21", "note": "(centres undefined)", "IkBa stabilization activation": "inconclusive: 9.64% [signal inhibitor]"}, {"smiles": "Cc1n[nH]c(C)c1N1C(=O)c2cccc3cc(Br)cc(c23)C1=O", "IkBa stabilization activation": "inactive: -4.21%"}, {"smiles": "COc1ccc(OC)c(NC(=O)c2cc(S(=O)(=O)NCCc3ccc(Cl)cc3)ccc2F)c1", "IkBa stabilization activation": "inconclusive: 0.243% [signal inhibitor]"}, {"smiles": "CCOc1ccc(OCC)c(NC(=O)c2ccc(-c3ccccc3)s2)c1", "IkBa stabilization activation": "inconclusive: 16.1% [signal inhibitor]"}, {"smiles": "Cc1nc2nc(SCC(=O)NC3CCC(C)CC3)nn2c(C)c1Cc1ccccc1", "note": "(centres undefined)", "IkBa stabilization activation": "inconclusive: 2.2% [signal inhibitor]"}, {"smiles": "CC(=O)C(Sc1nn(C)c(=S)s1)C(=O)Nc1ccccc1", "note": "(centres undefined)", "Potency": "inconclusive: 25.1 µM [signal inhibitor, partial curve]"}, {"smiles": "CCOc1ccc(CCNC(=O)c2sc3ncccc3c2-n2cccc2)cc1OCC", "IkBa stabilization activation": "inconclusive: -1.45% [signal inhibitor]"}, {"smiles": "NC(=O)CCCCn1ccc(NC(N)=NCC(F)(F)F)n1", "IkBa stabilization activation": "inactive: 0.0275%"}, {"smiles": "Cc1ccc(N2CC(NC(=O)c3ccc(S(=O)(=O)N4CCCC4)cc3)CC2=O)cc1C", "note": "(centres undefined)", "IkBa stabilization activation": "inactive: -0.541%"}, {"smiles": "O=C(Nc1ccccc1)[C@@]12C[C@@H]1/C(=N/O)c1ccccc1O2", "IkBa stabilization activation": "inconclusive: -0.0651% [signal inhibitor]"}, {"smiles": "Cc1cc(C)cc(-n2ccn(CC(=O)Nc3cc(C)ccc3C)c(=O)c2=O)c1", "IkBa stabilization activation": "inconclusive: 3.96% [signal inhibitor]"}, {"smiles": "Cc1cccc(N2CCN(C(=O)CCNS(=O)(=O)c3ccc4c(c3)CCC(=O)N4)CC2)c1C", "IkBa stabilization activation": "inconclusive: 1.82% [signal inhibitor]"}, {"smiles": "Cc1ccc(-c2cn(-c3cccc(Cl)c3)c(S(=O)(=O)CC(=O)Nc3cccc(C)c3)n2)cc1", "IkBa stabilization activation": "inconclusive: 5.69% [signal inhibitor]"}, {"smiles": "COc1ccc(CCNc2nc(-c3ccc(OC)c(OC)c3)cc(C(F)(F)F)n2)cc1OC", "IkBa stabilization activation": "inconclusive: 8.82% [signal inhibitor]"}, {"smiles": "CN(C)CCCn1c(N)c(C#N)c2nc(C#N)c(C#N)nc21", "Potency": "inconclusive: 25.1 µM [rising, partial curve]"}, {"smiles": "COc1ccc(-c2nnc(SCC(=O)NC3CCCC3)nc2-c2ccc(OC)c(OC)c2)cc1OC", "IkBa stabilization activation": "inactive: 0.63%"}, {"smiles": "CN(C)CCCN=c1c2ccccc2n(C)c2[nH]c(=O)n(C)c(=O)c12", "IkBa stabilization activation": "inactive: 12.2% [at 11.4 µM, scaled: untreated 0%, proteasome inhibitor 100%]"}, {"smiles": "COc1ccc2occ(C(=O)c3ccc(N=C(C)N(C)C)cc3)c2c1", "IkBa stabilization activation": "inconclusive: 1.5% [signal inhibitor]"}]}]}
